In PubChem BioAssay AID686979 (National Center for Advancing Translational Sciences (NCATS), 2013):
The whole screen tested about 420,000 compounds, of which about 50,000 (12%) were called active. The shares of active, inactive and inconclusive entries below differ from those in the screen. Calls follow the shape of the dose curve; as a rule, active = well fitted inhibition curve with a large enough effect; inconclusive = small, poorly fitted or top-dose-only effect; inactive = flat fitted curve, though single readings scatter. Potencies of inconclusive entries are left out as doubtful fits.
% is scaled to controls: 0 for no effect and ±100 for the full control effect; potency is read from the fitted curve at half-maximal effect; tags tell the direction and shape of the fitted curve.

Assay: qHTS for Inhibitors of human tyrosyl-DNA phosphodiesterase 1 (TDP1): qHTS in cells in presence of CPT; also: nearly all actives have a fitted effect of over 55% in size
Details: chicken DT40 Tdp1-/-;hTDP1 cells + 20 nM CPT, ATP luminescence, 48 h; activity change, negative = growth inhibition: at 46.2 µM (top of the series) unless noted
Outline: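 Chicken DT40 Tdp1-/- cells stably complemented with human TDP1 were seeded at 400 cells/well in medium containing 20 nM camptothecin, exposed to pin-transferred compounds, and grown at 37 °C for at least 48 hr. Viability was read as ATP luminescence.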
For `Cc1cc(S(=O)(=O)NCC(c2ccc(F)cc2)N2CCN(C)CC2)ccc1F` (stereo not drawn), the Potency was inconclusive [inhibitor, full curve].
In the case of `O=C(COc1ccc(/C=N/NC(=O)CSCc2ccc([N+](=O)[O-])cc2)cc1)NCc1ccco1`, the Potency is reported as inconclusive [inhibitor, partial curve].
With `Cc1cccc2cc(COC(=O)c3ccco3)c(=O)[nH]c12` the “activity change, negative = growth inhibition” value was inactive: -1.85%.
With `CN1/C(=C/C=C(/C#N)C(N)=O)C(C)(C)c2ccccc21` the Potency was active: 2.59 µM.
With `C[C@@H]1CN([C@H](C)CO)C(=O)CCCn2nncc2CO[C@@H]1CN(C)S(=O)(=O)c1ccccc1F` the “activity change, negative = growth inhibition” value was inactive: -6.48%.
In the case of `CCCN(CCC)CCNC(=O)c1cc(Sc2ccc(Cl)cc2)nc2ccccc12`, the Potency is reported as active: 16.4 µM.
In the case of `O=C(c1n[nH]c2ccccc12)N1CCN(S(=O)(=O)c2ccc(Cl)cc2)CC1`, the Potency is reported as inconclusive [inhibitor, single point].
In the case of `OCCNc1nc2ccccc2n1CC(O)c1ccccc1` (stereo not drawn), the “activity change, negative = growth inhibition” value is reported as inactive: -23.8%.
With `COc1ccc(OC)c(NC(=O)CCc2c(C)nc3c(-c4ccccc4)c(C)nn3c2C)c1` the Potency was inconclusive [inhibitor, single point].
In the case of `O=C(N/N=C/C1C(c2ccccc2)C1(Cl)Cl)c1cccc(Cl)c1` (stereo not drawn), the Potency is reported as inconclusive [inhibitor, single point].
With `CC(=O)Oc1ccc(C(=O)Nc2cccc(C(=O)c3cccc(NC(=O)c4ccc(OC(C)=O)cc4)c3)c2)cc1` the Potency was inconclusive [inhibitor, single point].
With `S=C(Nc1ccccc1Cl)N(Cc1ccccc1)Cc1ccccn1` the Potency was inconclusive [inhibitor, single point].
In the case of `O=C1CSc2ccc(C(=O)N3CCCCC3)cc2N1`, the “activity change, negative = growth inhibition” value is reported as inactive: -15.3%.
With `COc1ccc(S(=O)(=O)NC(=O)C2(C)CCN2C(=O)Cc2cc(C)cc(C)c2)cc1` (stereo not drawn) the “activity change, negative = growth inhibition” value was inactive: 20%.
For `NC(CSCc1ccccc1)C(=O)Nc1ccc([N+](=O)[O-])cc1` (stereo not drawn), the Potency was inconclusive [inhibitor, partial curve].
For `CN(C)S(=O)(=O)c1cccc(C(=O)NC2CCSc3ccccc32)c1` (stereo not drawn), the Potency was inconclusive [inhibitor, single point].
For `COc1cccc(C(C(=O)NC(C)(C)C)N(CCC(C)C)C(=O)CCC(=O)Nc2cc(C)on2)c1OC` (stereo not drawn), the activity change, negative = growth inhibition was inconclusive: -34.6% [inhibitor].
In the case of `Fc1ccc(-c2nc3ccc(Cl)cn3c2Cc2cccc(F)c2)cc1`, the Potency is reported as inconclusive [inhibitor, single point].
In the case of `O=C(COc1ccc2c(-c3ccccc3)cc(=O)oc2c1)NCCCn1ccnc1`, the Potency is reported as active: 18.4 µM.
With `CCCCN(C(=O)CCC(=O)Nc1cc(C)on1)C(C(=O)NC1CCCC1)c1ccccc1OCC` (stereo not drawn) the Potency was inconclusive [inhibitor, single point].
With `CN(C)S(=O)(=O)c1ccc(Cl)c(C(=O)OCC(=O)NC(=O)NC2CCCC2)c1` the “activity change, negative = growth inhibition” value was inactive: -12.5%.
In the case of `O=C(OCc1ccccc1F)c1cc(S(=O)(=O)N2CCCCC2)ccc1N1CCOCC1`, the Potency is reported as inconclusive [inhibitor, single point].
With `CN(C)c1ncnc2ccc(-c3ccccc3C(F)(F)F)cc12` the Potency was inconclusive [inhibitor, single point].
With `Cc1ccc(SCc2cn3cc(Cl)ccc3n2)cc1` the “activity change, negative = growth inhibition” value was inactive: -13.7%.
In the case of `Cc1cccc(CSCCNC(=O)CN(c2ccccc2)S(=O)(=O)N(C)C)c1`, the Potency is reported as inconclusive [inhibitor, single point].
In the case of `CCOC(=O)c1ccc(NC(=O)COc2ccc(S(=O)(=O)N3CCCC3)cc2)cc1`, the activity change, negative = growth inhibition is reported as inconclusive: -31% [inhibitor].
With `COc1ccc(CNC(=O)CN2CCN(C(c3ccccc3)c3ccccc3)CC2)cc1` the Potency was active: 18.4 µM.
In the case of `CC(=O)NC(Cc1ccccc1)C(=O)NC1CCN(C(=O)c2ccc([N+](=O)[O-])cc2)CC1` (stereo not drawn), the Potency is reported as inconclusive [inhibitor, single point].
With `S=C(Nc1ccc(Oc2ccccc2)cc1)N1CCOCC1` the “activity change, negative = growth inhibition” value was inactive: 8.93%.
With `Cc1ccc(N2CCN(C3=NC(=O)/C(=C\c4cn[nH]c4-c4ccccc4)S3)CC2)cc1` the Potency was inconclusive [inhibitor, single point].
With `OC[C@@H](O)[C@@H](O[C@H]1O[C@H](CO)[C@@H](O)[C@H](O)[C@H]1O)[C@H](O)[C@@H](O)CO` the “activity change, negative = growth inhibition” value was inactive: -0.251%.
In the case of `Cc1cccc(Nc2nc3ccccc3n3c(N)nnc23)c1`, the “activity change, negative = growth inhibition” value is reported as inactive: 5.82%.
In the case of `COc1ccc(CNC(=O)[C@H](C)N2C(=O)N3CCc4c([nH]c5ccccc45)[C@@]3(C)C2=O)cc1OC`, the Potency is reported as active: 2.59 µM.
In the case of `CCn1cc(CN2CCCC(C(=O)c3ccc(-c4ccccc4)cc3)C2)cn1` (stereo not drawn), the Potency is reported as inconclusive [inhibitor, single point].
With `O=C(NCCCN1CCOCC1)c1ccc2c(c1)N(Cc1ccccc1)CCS2` the Potency was inconclusive [inhibitor, single point].
For `CCC(Sc1ncccc1Nc1ccccn1)C(=O)O` (stereo not drawn), the “activity change, negative = growth inhibition” value was inactive: -6.1%.
In the case of `O=C(Nc1ccccc1NS(=O)(=O)c1ccc(F)cc1)C1CCC1`, the Potency is reported as inconclusive [inhibitor, partial curve, poor fit].
With `CSc1nccc(N2CCN(c3ccc(F)cc3)CC2)n1` the Potency was active: 13 µM.
For `CC(C)n1c(SCc2cc(=O)[nH]c3ccccc23)nc2c1c(=O)n(C)c(=O)n2C`, the Potency was inconclusive [inhibitor, single point].
In the case of `COc1ccc2[nH]c(=O)c(CNc3ccccc3)cc2c1`, the Potency is reported as active: 4.11 µM.
For `CCCC(C(=O)O)N1C(=O)/C(=C/c2cccn2C)SC1=S` (stereo not drawn), the “activity change, negative = growth inhibition” value was inactive: -20.4%.
For `CCc1c(C)nc2cc(-c3ccccc3)[nH]n2c1=O`, the Potency was active: 8.2 µM.
With `O=C(NCc1ccccc1CN1CCCC1)c1cccc(N2CCCC2=O)c1` the “activity change, negative = growth inhibition” value was inactive: -4.31%.
In the case of `CCCN(CC1CCCO1)C(=O)CCc1nnc(CCc2ccc(OC)cc2)o1` (stereo not drawn), the Potency is reported as active: 23.1 µM.
In the case of `Cc1cc(NC(=O)CCC(=O)N(CC(=O)NC2CCCC2)c2ccc(F)cc2)no1`, the “activity change, negative = growth inhibition” value is reported as inactive: -7.16%.
With `COc1ccc(C(=O)NCc2ccc3c(c2)cc(C)n3C)cc1OC` the Potency was inconclusive [inhibitor, single point].
For `O=c1cc(CSc2nnc(-c3ccco3)o2)c2ccccc2[nH]1`, the Potency was inconclusive [inhibitor, partial curve].
With `Cc1ccc(NC(=O)CN(C)C(=O)c2cccnc2Nc2cccc(C(F)(F)F)c2)cc1` the Potency was inconclusive [inhibitor, single point].
For `COCCN1C[C@@H](CO)O[C@@H](n2cnc3c(N(C)C(C)C)ncnc32)C1`, the “activity change, negative = growth inhibition” value was inactive: 4.02%.
With `COc1ccc(C2=NN(C(=O)CCC(=O)O)C(c3ccc(F)cc3)C2)cc1` (stereo not drawn) the “activity change, negative = growth inhibition” value was inactive: -4.81%.
For `COc1ccc(C(=O)C=Cc2ccc3c(c2)OCO3)cc1OC`, the “activity change, negative = growth inhibition” value was inactive: -21.2%.
In the case of `CCc1ccc(N2CC(C(=O)OCC(=O)Nc3ccccc3C)CC2=O)cc1` (stereo not drawn), the “activity change, negative = growth inhibition” value is reported as inactive: -20.7%.
In the case of `COc1ccc(CN2CCN(Cc3cccc(Oc4ccccc4)c3)CC2)c(OC)c1OC`, the Potency is reported as inconclusive [inhibitor, single point].
With `Nc1ncnc2c1ncn2C1OC(CO)C(O)C1N` (stereo not drawn) the “activity change, negative = growth inhibition” value was inactive: -24.4%.
In the case of `COc1cccc(N2CCN(c3ncc4c(n3)CCN(Cc3ccc(Br)cc3)C4)CC2)c1`, the Potency is reported as active: 13 µM.
With `Cc1ccc(-n2c(-c3ccco3)n[nH]c2=S)cc1` the “activity change, negative = growth inhibition” value was inactive: 9.21%.
In the case of `CN1CCN(C(=O)/C=C/c2ccc(Cl)cc2)CC1`, the “activity change, negative = growth inhibition” value is reported as inactive: 5.69%.
In the case of `Cc1ccc2cc(C(c3nnnn3C(C)(C)C)N3CCCCCC3)c(=O)[nH]c2c1` (stereo not drawn), the “activity change, negative = growth inhibition” value is reported as inactive: -3.81%.
For `CCCCc1c(C)nc2ccc(C(=O)OCC)cc2c1Cl`, the Potency was inconclusive [inhibitor, single point].
In the case of `CC1CCN(S(=O)(=O)c2ccc3c4c2CC(=O)N4CC(C)S3)CC1` (stereo not drawn), the Potency is reported as inconclusive [inhibitor, single point].
For `CCN1/C(=C/c2ccc3ccccc3[n+]2CCCS(=O)(=O)[O-])C=Cc2cc(C)ccc21`, the Potency was inconclusive [inhibitor, single point].
With `Cc1ccc(OC(C)C(=O)NCC2(N3CCOCC3)CCCCC2)cc1C` (stereo not drawn) the Potency was inconclusive [inhibitor, single point].
With `Cc1cccc(N2N=C(C(=O)Nc3ccc(Cl)c(S(=O)(=O)N4CCOCC4)c3)CCC2=O)c1` the Potency was inconclusive [inhibitor, single point].
For `COCCCNC(=O)CCc1nc2cccnc2n1Cc1ccccc1`, the “activity change, negative = growth inhibition” value was inactive: -2.68%.
In the case of `Cc1c(C(=O)NC2CCN(Cc3ccccc3)C2)oc2c(Cl)cccc12` (stereo not drawn), the Potency is reported as inconclusive [inhibitor, partial curve, poor fit].
For `CCN(CC)S(=O)(=O)c1cnccc1N1CCN(c2cccc(Cl)c2)CC1`, the Potency was inconclusive [inhibitor, single point].
In the case of `COc1ccc(C2Nc3ccccc3C(=O)N2Cc2ccccc2)cc1` (stereo not drawn), the Potency is reported as inconclusive [inhibitor, single point].
For `COC(=O)COc1ccc(-c2ccc(F)cc2)cc1C=O`, the Potency was inconclusive [inhibitor, single point].
For `Cc1cccc(CNC(=O)c2ccc(Cn3c(SCc4ccccc4)nc4cccnc43)cc2)c1`, the Potency was inconclusive [inhibitor, single point].
With `O=C(Cc1cccs1)N1CCC(c2nc3c(nnn3Cc3ccccc3)c(=O)[nH]2)CC1` the Potency was inconclusive [inhibitor, partial curve].
In the case of `COC(=O)c1ccc(NC(=O)CSc2nc3ccccc3c(=O)[nH]2)cc1`, the Potency is reported as inconclusive [inhibitor, single point].
With `N#CCSc1n[nH]c2nc3c(c(=O)n12)C1(CCCC1)Cc1ccccc1-3` the “activity change, negative = growth inhibition” value was inactive: -7.41%.
In the case of `Clc1ccccc1-c1nnn(Cc2ccc(-c3nn[nH]n3)cc2)n1`, the Potency is reported as inconclusive [inhibitor, single point].
